Measurements published in the supplement of paper PMC8728848.
The list shows a part of the results.

Legend:
Test in all cases: glycan array binding signal (z-score within array); higher = stronger binding
Conditions in all cases: glycan notation: IUPAC condensed, linker removed
[1] = molecular target: Fuc(a1-2)Gal(b1-4)GlcNAc(b1-3)Gal(b1-4)GlcNAc(b1-3)Gal(b1-4)GlcNAc
How it was run: (§1)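 Glycan array data were curated from 3228 arrays in the Consortium for Functional Glycomics database and kept only where the protein sequence was available. Glycan names were converted to IUPAC-condensed notation, and columns mapping to the same glycan were averaged. The binding signal is a within-array Z-score, averaged across arrays of the same protein sequence at different concentrations or buffers and across linkers. Negative Z-scores can be read as non-binding.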

[2] = molecular target: Fuc(a1-2)Gal(b1-4)GlcNAc(b1-3)GalNAc
How it was run: as §1

[3] = molecular target: Fuc(a1-2)Gal(b1-4)GlcNAc(b1-3)[Fuc(a1-2)Gal(b1-4)GlcNAc(b1-6)]GalNAc
How it was run: as §1

[4] = molecular target: Fuc(a1-2)Gal(b1-4)GlcNAc(b1-3)[Fuc(a1-3)[Gal(b1-4)]GlcNAc(b1-6)]Gal(b1-4)Glc
How it was run: as §1

[5] = molecular target: Fuc(a1-2)Gal(b1-4)GlcNAc(b1-6)GalNAc
How it was run: as §1

[6] = molecular target: Fuc(a1-2)Gal(b1-4)GlcNAc6S
How it was run: as §1

[7] = molecular target: Fuc(a1-2)Gal(b1-4)[Fuc(a1-3)]GlcNAc
How it was run: as §1

[8] = molecular target: Fuc(a1-2)Gal(b1-4)[Fuc(a1-3)]GlcNAc(b1-2)Man(a1-3)[Fuc(a1-2)Gal(b1-4)[Fuc(a1-3)]GlcNAc(b1-2)Man(a1-6)]Man(b1-4)GlcNAc(b1-4)[Fuc(a1-6)]GlcNAc
How it was run: as §1

[9] = molecular target: Fuc(a1-2)Gal(b1-4)[Fuc(a1-3)]GlcNAc(b1-2)[Fuc(a1-2)Gal(b1-4)[Fuc(a1-3)]GlcNAc(b1-4)]Man(a1-3)[Fuc(a1-2)Gal(b1-4)[Fuc(a1-3)]GlcNAc(b1-2)Man(a1-6)]Man(b1-4)GlcNAc(b1-4)GlcNAc
How it was run: as §1

[10] = molecular target: Fuc(a1-2)Gal(b1-4)[Fuc(a1-3)]GlcNAc(b1-3)Gal(b1-4)[Fuc(a1-3)]GlcNAc
How it was run: as §1

[11] = molecular target: Fuc(a1-2)Gal(b1-4)[Fuc(a1-3)]GlcNAc(b1-3)Gal(b1-4)[Fuc(a1-3)]GlcNAc(b1-3)Gal(b1-4)[Fuc(a1-3)]GlcNAc
How it was run: as §1

[12] = molecular target: Fuc(a1-2)Gal(b1-4)[Fuc(a1-3)]GlcNAc(b1-3)GalNAc
How it was run: as §1

[13] = molecular target: Fuc(a1-2)Gal(b1-4)[Fuc(a1-3)]GlcNAc(b1-3)[Neu5Ac(a2-6)Gal(b1-4)GlcNAc(b1-6)]Gal(b1-4)Glc
How it was run: as §1

[14] = molecular target: Fuc(a1-2)Gal3S(b1-4)GlcNAc
How it was run: as §1

[15] = molecular target: Fuc(a1-2)Gal6S(b1-3)GlcNAc
How it was run: as §1

[16] = molecular target: Fuc(a1-2)Gal6S(b1-3)GlcNAc6S
How it was run: as §1

Fuc(a1-2)Gal6S(b1-4)Glc = molecular target: Fuc(a1-2)Gal6S(b1-4)Glc
How it was run: as §1

[17] = molecular target: Fuc(a1-2)Gal6S(b1-4)Glc6S
How it was run: as §1

Fuc(a1-2)[Gal(a1-3)]Gal = molecular target: Fuc(a1-2)[Gal(a1-3)]Gal
How it was run: as §1

[18] = molecular target: Fuc(a1-2)[Gal(a1-3)]Gal(b1-3)GalNAc
How it was run: as §1

[19] = molecular target: Fuc(a1-2)[Gal(a1-3)]Gal(b1-3)GalNAc(b1-3)Gal(a1-4)Gal(b1-4)Glc
How it was run: as §1

[20] = molecular target: Fuc(a1-2)[Gal(a1-3)]Gal(b1-3)GlcNAc
How it was run: as §1

[21] = molecular target: Fuc(a1-2)[Gal(a1-3)]Gal(b1-3)GlcNAc(b1-2)Man(a1-3)[Fuc(a1-2)[Gal(a1-3)]Gal(b1-3)GlcNAc(b1-2)Man(a1-6)]Man(b1-4)GlcNAc(b1-4)GlcNAc
How it was run: as §1

[22] = molecular target: Fuc(a1-2)[Gal(a1-3)]Gal(b1-3)GlcNAc(b1-2)Man(a1-3)[Fuc(a1-2)[Gal(a1-3)]Gal(b1-3)GlcNAc(b1-2)Man(a1-6)]Man(b1-4)GlcNAc(b1-4)[Fuc(a1-6)]GlcNAc
How it was run: as §1

[23] = molecular target: Fuc(a1-2)[Gal(a1-3)]Gal(b1-3)GlcNAc(b1-3)GalNAc
How it was run: as §1

[24] = molecular target: Fuc(a1-2)[Gal(a1-3)]Gal(b1-3)GlcNAc(b1-6)GalNAc
How it was run: as §1

[25] = molecular target: Fuc(a1-2)[Gal(a1-3)]Gal(b1-4)Glc
How it was run: as §1

[26] = molecular target: Fuc(a1-2)[Gal(a1-3)]Gal(b1-4)GlcNAc
How it was run: as §1

[27] = molecular target: Fuc(a1-2)[Gal(a1-3)]Gal(b1-4)GlcNAc(b1-2)Man
How it was run: as §1

[28] = molecular target: Fuc(a1-2)[Gal(a1-3)]Gal(b1-4)GlcNAc(b1-2)Man(a1-3)[Fuc(a1-2)[Gal(a1-3)]Gal(b1-4)GlcNAc(b1-2)Man(a1-6)]Man(b1-4)GlcNAc(b1-4)GlcNAc
How it was run: as §1

B1: PNGase F (Flavobacterium meningosepticum) (protein)
chain: GIPAPADNTVNIKTFDKVKNAFGDGLSQSAEGTFTFPADVTAVKTIKMFIKNECPNKTCDEWDRYANVYVKNKTTGEWYEIGRFITPYWVGTEKLPRGLEIDVTDFKSLLSGNTELKIYTETWLAKGREYSVDFDIVYGTPDYKYSAVVPVVQYNKSSIDGVPYGKAHTLALKKNIQLPTNTEKAYLRTTISGWGHAKPYDAGSRGCAEWCFRTHTIAINNSNTFQHQLGALGCSANPINNQSPGNWTPDRAGWCPGMAVPTRIDVLNNSLIGSTFSYEYKFQNWTNNGTNGDAFYAISSFVIAKSNTPISAPVVTNLDPHHHHHH
With B1 the “glycan array binding signal (z-score)” value [1] was -0.312, the “glycan array binding signal (z-score)” value [2] was -0.046 and the “glycan array binding signal (z-score)” value [3] was 0.021. For the same binder, the “glycan array binding signal (z-score)” value [4] was -0.14, the “glycan array binding signal (z-score)” value [5] was -0.034 and the “glycan array binding signal (z-score)” value [6] was 0.153. The “glycan array binding signal (z-score)” value [7] was -0.097, the “glycan array binding signal (z-score)” value [8] was -0.143 and the “glycan array binding signal (z-score)” value [9] was -0.044. The “glycan array binding signal (z-score)” value [10] was -0.304, the “glycan array binding signal (z-score)” value [11] was 0.031 and the “glycan array binding signal (z-score)” value [12] was -0.154. The “glycan array binding signal (z-score)” value [13] was -0.323, the “glycan array binding signal (z-score)” value [14] was -0.157 and the “glycan array binding signal (z-score)” value [15] was -0.138. For the same binder, the “glycan array binding signal (z-score)” value [16] was 0.15, the “glycan array binding signal (z-score)” value (Fuc(a1-2)Gal6S(b1-4)Glc) was -0.094 and the “glycan array binding signal (z-score)” value [17] was 0.295. For the same binder, the “glycan array binding signal (z-score)” value (Fuc(a1-2)[Gal(a1-3)]Gal) was -0.116, the “glycan array binding signal (z-score)” value [18] was -0.244 and the “glycan array binding signal (z-score)” value [19] was 0.033. For the same binder, the “glycan array binding signal (z-score)” value [20] was 0.043, the “glycan array binding signal (z-score)” value [21] was -0.185 and the “glycan array binding signal (z-score)” value [22] was 0.023. For the same binder, the “glycan array binding signal (z-score)” value [23] was 0.414, the “glycan array binding signal (z-score)” value [24] was -0.032 and the “glycan array binding signal (z-score)” value [25] was -0.065. The “glycan array binding signal (z-score)” value [26] was -0.268, the “glycan array binding signal (z-score)” value [27] was 0.361 and the “glycan array binding signal (z-score)” value [28] was -0.273.
